Test results taken from PMC4336329 (PLoS ONE, 2015).
In all, about 310,000 compounds went through this assay and about 2,200 (0.71%) showed an effect of 50% or more. The effect is printed as a negative number. Some of the results follow.

molecular target: human ether-à-go-go-related gene (hERG) potassium channel (human, UniProt Q12809); assay: primary screen, population patch clamp on CHO cells stably expressing hERG
Sequence (Q12809 whole entry, looked up): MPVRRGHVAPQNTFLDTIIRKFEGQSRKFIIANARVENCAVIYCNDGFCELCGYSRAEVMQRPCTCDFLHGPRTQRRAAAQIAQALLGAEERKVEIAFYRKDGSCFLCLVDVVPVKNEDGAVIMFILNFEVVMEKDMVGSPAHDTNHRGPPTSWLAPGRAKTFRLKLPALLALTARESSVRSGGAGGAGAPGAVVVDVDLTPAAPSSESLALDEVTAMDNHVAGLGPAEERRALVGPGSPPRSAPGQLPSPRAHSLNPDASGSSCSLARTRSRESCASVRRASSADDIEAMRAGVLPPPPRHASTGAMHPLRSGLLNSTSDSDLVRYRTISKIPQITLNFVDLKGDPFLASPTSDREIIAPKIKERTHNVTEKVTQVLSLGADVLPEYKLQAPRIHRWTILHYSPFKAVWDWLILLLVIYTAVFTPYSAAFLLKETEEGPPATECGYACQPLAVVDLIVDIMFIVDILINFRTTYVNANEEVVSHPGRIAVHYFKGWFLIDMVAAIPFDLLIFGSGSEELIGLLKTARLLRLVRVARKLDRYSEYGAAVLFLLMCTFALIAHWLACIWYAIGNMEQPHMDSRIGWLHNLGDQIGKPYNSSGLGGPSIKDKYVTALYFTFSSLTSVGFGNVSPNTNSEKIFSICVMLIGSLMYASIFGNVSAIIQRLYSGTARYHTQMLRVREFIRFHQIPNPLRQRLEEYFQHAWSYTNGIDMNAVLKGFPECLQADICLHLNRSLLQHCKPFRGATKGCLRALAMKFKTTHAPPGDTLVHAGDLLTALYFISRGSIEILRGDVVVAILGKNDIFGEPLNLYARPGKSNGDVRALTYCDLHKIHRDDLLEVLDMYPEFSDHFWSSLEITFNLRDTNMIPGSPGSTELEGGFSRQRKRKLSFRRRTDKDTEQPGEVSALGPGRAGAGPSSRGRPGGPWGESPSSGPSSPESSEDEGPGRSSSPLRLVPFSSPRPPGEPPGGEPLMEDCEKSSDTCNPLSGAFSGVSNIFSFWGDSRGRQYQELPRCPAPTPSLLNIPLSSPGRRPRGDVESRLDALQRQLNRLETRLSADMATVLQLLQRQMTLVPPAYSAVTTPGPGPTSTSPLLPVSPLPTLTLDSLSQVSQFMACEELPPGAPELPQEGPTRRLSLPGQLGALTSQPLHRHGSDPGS

Row | Compound | hERG current change (%, negative = inhibition) at 1uM [%]
1 | O=C(NCCNC(=O)c1cc(OCC(F)(F)F)ccc1OCC(F)(F)F)Nc1cccc(C(F)(F)F)c1 | -0.74
2 | O=C(Nc1cccc([N+](=O)[O-])c1)Nc1ccc2c(c1)CCC2 | 12.1
3 | CCCC(=O)c1ccc(N2CCN(S(=O)(=O)c3ccccc3)CC2)c(F)c1 | 11.3
4 | Cc1ccc(NC(=O)C(=O)N2CCCC2)cc1Cl | 17.6
5 | Cc1ccc(-n2c(=S)[nH]c3c(oc4ccccc43)c2=O)cc1 | 13
6 | O=C(O)c1ccc(COc2ccccc2/C=C2/NC(=O)N(c3cccc(Cl)c3)C2=O)cc1 | 6.51
7 | CCOc1ccccc1CNC(=O)C1CCC(=O)N1C(C)C (stereo not drawn) | 8.34
8 | COc1cc(C(=O)N[C@H](C(=O)NC(C)C23CC4CC(CC(C4)C2)C3)C(C)C)cc(OC)c1OC (stereo partly drawn) | 14
9 | CN(C)S(=O)(=O)c1ccc(Cl)c(NC(=O)COC(=O)CN2C(=O)C3CCCCC3C2=O)c1 (stereo not drawn) | 5.32
10 | CN(C)S(=O)(=O)c1ccc(/C(O)=C2/C(=O)C(=O)N(Cc3cccnc3)C2c2cccs2)cc1 (stereo not drawn) | 7.27
11 | CCOC(=O)C1=C(C)NC(=O)NC1c1ccc(-c2ccc(F)cc2)o1 (stereo not drawn) | -8.73
12 | Cc1cccc(C)c1NC(=O)c1ccccc1C(=O)O | 8.61
13 | CCCc1cc(=O)oc2c3c(cc(OCC(=O)NCCCn4ccnc4)c12)OC(C)(C)CC3 | -33
14 | O=C(CN(c1ccc(F)cc1)S(=O)(=O)c1ccc2c(c1)OCCO2)N1CCOCC1 | 8.45
15 | CC(C)[C@H](NS(=O)(=O)c1ccc(Cl)cc1)C(=O)OCC(=O)c1c(N)n(C)c(=O)n(C)c1=O | -9.36
16 | CS(=O)(=O)c1ccc(NCC2CCCO2)c([N+](=O)[O-])c1 (stereo not drawn) | 15.1
17 | CCOc1cc2c3c(c1)C1(Nc4ccccc4S1)C(=O)N3C(C)(C)CC2C (stereo not drawn) | 12.1
18 | Fc1ccccc1Cn1nnc2c(NCc3ccccn3)ncnc21 | -1.34
19 | CCC(=O)Nc1nnc(SCCN2CCOCC2)s1.Cl | 20.8

Row | Compound | hERG current change (%, negative = inhibition) at 1uM [%]
20 | Clc1ccc(CSc2ccc(-c3ccco3)nn2)cc1 | 12.8
21 | Cc1ccc2[nH]c3c(=O)n(CC(=O)NCc4ccco4)ncc3c2c1 | 14.1
22 | Cc1cc(C)cc(N2C(N)=NC(N)=NC2c2ccccc2F)c1.Cl (stereo not drawn) | 10.3
23 | Fc1cccc(Nc2ncnc3c2cnn3-c2ccccc2)c1 | 15.8
24 | O=c1c(-c2ccccc2)cnc2n1CCS2 | -1.6
25 | Cc1ccc(S(=O)(=O)NC(=NC2CCCCC2)c2ccccc2)cc1 | -26.8
26 | CCOC(=O)C1=C(CN2CCN(C(=O)OCC)CC2)NC(=O)NC1c1ccc2c(c1)OCO2 (stereo not drawn) | -5.46
27 | COc1ccc(CNC(=O)c2ccc(SC)cc2OC)cc1 | 8.14
28 | Cn1c2c(c(=O)n(C)c1=O)CN(CCN1CCNCC1)CN2 | 1.08
29 | COC(=O)c1cc2n(n1)CCCNC2=O | 14.1
30 | COCCCN(C(=O)CCOc1ccccc1C)c1c(N)n(Cc2ccccc2)c(=O)[nH]c1=O | 15.3
31 | O=C1c2ccccc2C(=O)N1c1cccc(-c2nc3ccccc3o2)c1 | 12.1
32 | CCCCn1c(O)c(C(CC)=NCc2ccco2)c(=O)[nH]c1=O | 5.95
33 | CCCCOCC(O)CCc1n[nH]c(=S)n1-c1ccccc1 (stereo not drawn) | 16.5
34 | [N-]=[N+]=NCCN1CCN(CCc2ccccc2)CCC1=O | 11.7
35 | COc1cc(OC)c(C2SCCS2)c(OC)c1 | 3.79
36 | CCOC(=O)c1c(NC(=O)CCCN2CCOCC2)sc2c1CC(C)(C)OC2 | 4.64
37 | O=C(CCNS(=O)(=O)c1ccc(Br)cc1)NC1CCN(Cc2ccccc2)CC1 | -19.7
38 | COc1cc(NC(=O)CC(C)S(=O)(=O)c2cc3c(cc2C)NC(=O)CO3)cc(OC)c1OC (stereo not drawn) | 8.71

Row | Compound | hERG current change (%, negative = inhibition) at 1uM [%]
39 | O=C1C2C3C=CC(C3)C2C(=O)N1CNc1ccccc1 (stereo not drawn) | 13.9
40 | O=C(Nc1ccccc1Cl)Nc1ccnn1C1CCN(C(=O)CCN2CCCO2)CC1 | 18.4
41 | O=C(NCc1ccccc1)c1cc(-n2cnnc2)ccc1Cl | 5.53
42 | O=C(Cn1cnc2sc3c(c2c1=O)CCCC3)NCC(=O)Nc1c(F)cccc1F | -2.27
43 | OC1c2cc(Br)ccc2N=C2CCCN21 (stereo not drawn) | 7.94
44 | CN(CCOc1ccc(CC2SC(=O)NC2=O)cc1)c1ccccn1.O=C(O)/C=C\C(=O)O (stereo not drawn) | 6.3
45 | O=C(C1CCCN(c2nnc(-n3cccc3)s2)C1)N1CCC2(CC1)OCCO2 (stereo not drawn) | -0.521
46 | COc1cc2c(C(=O)N3CCN(c4ccccc4)CC3)c(C)oc2cc1Br | 4.92
47 | CCOC(=O)c1c(C)[nH]c(C)c1S(=O)(=O)N1CCOCC1 | 12
48 | COc1ccc(-n2c(Cn3c(=O)sc4ccccc43)nnc2SCC(=O)N2CCOCC2)cc1 | 6.43
49 | CC(C)N1CC(O)=C(c2nc3ccccc3[nH]2)C1=N | 1.91
50 | CC1CCCN(CCOCCOc2ccc(Cl)cc2Br)C1.O=C(O)C(=O)O (stereo not drawn) | -31.8
51 | CCOC(=O)Cc1csc(NC(=O)CS(=O)(=O)Cc2ccccc2)n1 | 11.1
52 | c1n[nH]c(NCc2ccc3c(c2)OCO3)n1 | 2.01
53 | CCOc1ccccc1NC(=O)C1C2C=CC(C2)C1C(=O)O (stereo not drawn) | 15.1
54 | CC1(C)c2[nH]c3ccccc3c2C[C@@H]2C(=O)N(Cc3ccccc3)C(=O)N21 | 24.9
55 | CCCS(=O)(=O)N1CCC(C(=O)NCCCOC)CC1 | 5.16
56 | COc1ccccc1CCC(=O)N(C)C1CCCN(Cc2ccccc2F)C1 (stereo not drawn) | 4.21
57 | Cc1c(C(=O)CN2CCSCC2)c2ccccc2n1C | -10.7
